In article PMC3140617 one finds stoichiometry N data, which are given here for one molecule.

The target of the assay is T1, avidin tetramer (egg white) (not stated (egg white)), P02701.
T1 chain: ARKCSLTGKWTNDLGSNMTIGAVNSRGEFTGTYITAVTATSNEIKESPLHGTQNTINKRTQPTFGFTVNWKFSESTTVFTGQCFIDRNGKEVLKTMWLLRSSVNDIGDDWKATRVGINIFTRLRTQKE
The assay can be described thus: native MS. The note with it: remark: other sources report otherwise.

B1: avidin tetramer (egg white), P02701 25-152 (natural protein)
chain: ARKCSLTGKWTNDLGSNMTIGAVNSRGEFTGTYITAVTATSNEIKESPLHGTQNTINKRTQPTFGFTVNWKFSESTTVFTGQCFIDRNGKEVLKTMWLLRSSVNDIGDDWKATRVGINIFTRLRTQKE
B1 showed a stoichiometry N of 4.

The stoichiometry N is a count of units in the complex or per binding partner.
